B1: PhoQ; a variant is named by its letters at X, in order, P23837 (parent)
chain: MKKLLRLFFPLSLRVRFLLATAAVVLVLSLAYGMVALIGYSVSFDKTTFRLLRGESNLFYTLAKWENNKLHVELPENIDKQSPTMTLIYDENGQLLWAQRDVPWLMKMIQPDWLKSNGFHEIEADVNDTSLLLSGDHSIQQQLQEVREDDDDAEMTHSVAVNVYPATSRMPKLTIVVVDTIPVELKSSYMVWSWFIYVLSANLLLVIPLLWVAAWWSLRPIEALAKEVRELEEHNRELLNPATTRELTSLVRNLNRLLKSERERYDKYRTTLTDLTHSLKTPLXXLQXXLRSLRSEKMSVSDAEPVMLEQISRISQQIGYYLHRASMRGGTLLSRELHPVAPLLDNLTSALNKVYQRKGVNISLDISPEISFVGEQNDFVEVMGNVLDNACKYCLEFVEISARQTDEHLYIVVEDDGPGIPLSKREVIFDRGQRVDTLRPGQGVGLAVAREITEQYEGKIVAGESMLGGARMEVIFGRQHSAPKDE

This is one part of the list.

This assay covers variants of B1. Briefly: enrichment ratio after two sorts for PhoP signalling (ratio (wild type AVST 3.29)); higher = more functional. Conditions: with PhoP (E. coli).
Take IREF: the enrichment ratio was at most 0.25.

As to YWYT, the enrichment ratio is at most 0.25.

With KREF, the enrichment ratio was at most 0.25.

For the variant KGPY, the enrichment ratio is at most 0.25.

Turning to DCSQ, the enrichment ratio was at most 0.25.

Consider AIVQ, for which the enrichment ratio is 10.4.

On to VHNC, for which the enrichment ratio is at most 0.25.

As for GEIR, the enrichment ratio was at most 0.25.

On to TDDE, for which the enrichment ratio was at most 0.25.

As to EKWE, the enrichment ratio was at most 0.25.

As for EYTQ, the enrichment ratio is at most 0.25.

As for IESQ, the enrichment ratio is at most 0.25.

Take NEIA: the enrichment ratio is at most 0.25.

Take DLST: the enrichment ratio was at most 0.25.

For NKTS, the enrichment ratio is at most 0.25.

Take MDAQ: the enrichment ratio was at most 0.25.

As for VMKY, the enrichment ratio is at most 0.25.

On to WKWT, for which the enrichment ratio was at most 0.25.

DQQK: the enrichment ratio is at most 0.25.

Take YQTR: the enrichment ratio was at most 0.25.

For the variant TDIN, the enrichment ratio is at most 0.25.

HTVK: the enrichment ratio is at most 0.25.

As for NTFP, the enrichment ratio is at most 0.25.

Take ITPC: the enrichment ratio is at most 0.25.

On to PWQM, for which the enrichment ratio is at most 0.25.

With QRPM, the enrichment ratio is at most 0.25.

VFMD: the enrichment ratio was at most 0.25.

In the case of VYQR, the enrichment ratio is at most 0.25.

With NRNG, the enrichment ratio is at most 0.25.

In the case of FMFS, the enrichment ratio was at most 0.25.

With EGLE, the enrichment ratio is at most 0.25.

Take YDKN: the enrichment ratio is at most 0.25.

As to TCVI, the enrichment ratio is at most 0.25.

In the case of VDEP, the enrichment ratio was at most 0.25.

As to LAEG, the enrichment ratio is at most 0.25.

On to ALWF, for which the enrichment ratio was at most 0.25.

On to GCAT, for which the enrichment ratio was at most 0.25.

For the variant QCCP, the enrichment ratio was at most 0.25.

Turning to NFQD, the enrichment ratio was at most 0.25.

For the variant KKAQ, the enrichment ratio was at most 0.25.

In the case of PDQA, the enrichment ratio is at most 0.25.

Consider RDHR, for which the enrichment ratio was at most 0.25.

Take IVGN: the enrichment ratio was at most 0.25.

As for VHRE, the enrichment ratio was at most 0.25.

Turning to EGPC, the enrichment ratio was at most 0.25.

For MCVA, the enrichment ratio is at most 0.25.

Turning to DTVS, the enrichment ratio is at most 0.25.

As to FWNC, the enrichment ratio was at most 0.25.

As for KLYQ, the enrichment ratio is at most 0.25.

As to QKLI, the enrichment ratio turned out to be 4.14.

On to LGSM, for which the enrichment ratio is at most 0.25.

For KFAF, the enrichment ratio was at most 0.25.

In the case of ISYV, the enrichment ratio was at most 0.25.

NMSL: the enrichment ratio was at most 0.25.

As to ERQL, the enrichment ratio was at most 0.25.

As for VKRH, the enrichment ratio was at most 0.25.

As for WPSL, the enrichment ratio is at most 0.25.

For THLG, the enrichment ratio amounted to 14.4.

As to CVAL, the enrichment ratio was at most 0.25.

Take YQKW: the enrichment ratio was at most 0.25.

In the case of PFSV, the enrichment ratio was at most 0.25.

On to HGFH, for which the enrichment ratio was at most 0.25.

For the variant YCFL, the enrichment ratio is at most 0.25.

As to LTPN, the enrichment ratio was at most 0.25.

Regarding KGVE, the enrichment ratio was at most 0.25.

For PYAV, the enrichment ratio is at most 0.25.

Consider HTFT, for which the enrichment ratio was at most 0.25.

As to GRPP, the enrichment ratio is at most 0.25.

Consider DASI, for which the enrichment ratio was at most 0.25.

As to MPCQ, the enrichment ratio was at most 0.25.

As to VVVQ, the enrichment ratio is at most 0.25.

Take VMFV: the enrichment ratio is at most 0.25.

ICMC: the enrichment ratio was at most 0.25.

As for VSRT, the enrichment ratio was at most 0.25.

As to VQET, the enrichment ratio is at most 0.25.

As for KLAV, the enrichment ratio is at most 0.25.

On to NFKF, for which the enrichment ratio was at most 0.25.

As to LECT, the enrichment ratio was 9.98.

Take AKNI: the enrichment ratio was at most 0.25.

For ACLM, the enrichment ratio was 4.08.

For YCWQ, the enrichment ratio is at most 0.25.

Take GEKH: the enrichment ratio is at most 0.25.

With EPGY, the enrichment ratio is at most 0.25.

Consider VVWD, for which the enrichment ratio was at most 0.25.

As for IMGL, the enrichment ratio was at most 0.25.

For the variant DFID, the enrichment ratio was at most 0.25.

Consider MGHW, for which the enrichment ratio was at most 0.25.

As to TWCA, the enrichment ratio is at most 0.25.

As for DGTC, the enrichment ratio is at most 0.25.

As for TNHK, the enrichment ratio was at most 0.25.

With ISIR, the enrichment ratio was at most 0.25.

Consider GPYR, for which the enrichment ratio was at most 0.25.

MKYL: the enrichment ratio was at most 0.25.

Turning to LTCD, the enrichment ratio was at most 0.25.

Take MDIY: the enrichment ratio is at most 0.25.

FSSG: the enrichment ratio was at most 0.25.

Take RNRA: the enrichment ratio was at most 0.25.

PMRM: the enrichment ratio was at most 0.25.

Regarding AKAK, the enrichment ratio was at most 0.25.

Consider FHPN, for which the enrichment ratio was at most 0.25.

For the variant IVAM, the enrichment ratio is at most 0.25.

For MMLT, the enrichment ratio is at most 0.25.

Regarding ECHC, the enrichment ratio was at most 0.25.

Turning to REMK, the enrichment ratio is at most 0.25.

Regarding IRTN, the enrichment ratio is at most 0.25.

For the variant YVCT, the enrichment ratio stood at 0.338.

For WHVD, the enrichment ratio is at most 0.25.

For MKNR, the enrichment ratio is at most 0.25.

In the case of SFSQ, the enrichment ratio was at most 0.25.

In the case of NENA, the enrichment ratio was at most 0.25.

As to SSGQ, the enrichment ratio was 4.67.

Regarding HCTN, the enrichment ratio is at most 0.25.

For VHDN, the enrichment ratio was at most 0.25.

Consider MFGC, for which the enrichment ratio is at most 0.25.

On to GFWD, for which the enrichment ratio was at most 0.25.

In the case of KCDT, the enrichment ratio was at most 0.25.

Take WLKP: the enrichment ratio is at most 0.25.

In the case of TDQT, the enrichment ratio came to 34.2.

For the variant VDWA, the enrichment ratio was at most 0.25.

Take ESDA: the enrichment ratio is at most 0.25.

Turning to CNSF, the enrichment ratio was at most 0.25.

Take YINN: the enrichment ratio was 0.808.

In the case of RCCD, the enrichment ratio was at most 0.25.

On to FGNA, for which the enrichment ratio is at most 0.25.

As for HHIG, the enrichment ratio was at most 0.25.

Turning to TKAS, the enrichment ratio was 9.15.

In the case of TATE, the enrichment ratio is at most 0.25.

As for WHRC, the enrichment ratio is at most 0.25.

With NQWT, the enrichment ratio was at most 0.25.

Consider MYRF, for which the enrichment ratio is at most 0.25.

REFE: the enrichment ratio was at most 0.25.

In the case of KIAA, the enrichment ratio is at most 0.25.

In the case of RKIL, the enrichment ratio was at most 0.25.

Take DTAY: the enrichment ratio is at most 0.25.

Consider NHIH, for which the enrichment ratio is at most 0.25.

For the variant DLGA, the enrichment ratio came to 0.566.

For the variant PFIV, the enrichment ratio is at most 0.25.

Turning to MHAY, the enrichment ratio is at most 0.25.

WGDE: the enrichment ratio was at most 0.25.

For the variant WYQH, the enrichment ratio was at most 0.25.

On to PIFR, for which the enrichment ratio was at most 0.25.

As for LAPC, the enrichment ratio was at most 0.25.

As for TKTY, the enrichment ratio was at most 0.25.

As for AKVK, the enrichment ratio was at most 0.25.

With RAVY, the enrichment ratio is at most 0.25.

On to PVYP, for which the enrichment ratio is at most 0.25.

For the variant RCLN, the enrichment ratio was at most 0.25.

With MILP, the enrichment ratio is at most 0.25.

In the case of TVAC, the enrichment ratio amounted to 7.24.

In the case of ISVT, the enrichment ratio is 0.441.

In the case of EHNC, the enrichment ratio was at most 0.25.

In the case of RPWN, the enrichment ratio was at most 0.25.

As for PRSM, the enrichment ratio is at most 0.25.

The record behind these values is a collection of fitness landscapes (doi:10.1126/science.1257360).
